Test results as given in the supplement of paper PMC10126150.
Sequences with one replicate were seen in a single cluster, so their values are uncertain.

Test system: ATP
Assay: switch fluorescence ratio, 500 uM ATP over buffer (Cy3 cluster intensity, sum of 5 cycles each) (fold (ratio)); higher = stronger signal-on switching upon ATP binding; sequences stand for … in TCGTCGGCAGCGTCAGATGTGTATAAGAGACAGTTTTTTTTTTTTTTTTTTTTTTTTT…TC
Conditions: aptamer strand: ATP DNA aptamer (quencher-CACCTGGGGGAGTATTGCGGAGGAAGG + anchor), 100 nM annealed; ATP concentration: 500 uM; one replicate
Procedure, shortened: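 Between each of five buffer/ATP cycles, the flow-cell was stripped with NaOH and re-annealed. Each cycle imaged Cy3-labelled switching-strand clusters, annealed to 100 nM quencher-labelled ATP aptamer on a modified Illumina MiSeq flow-cell, first in selection buffer and then after 15 min with 500 uM ATP at 22 °C. The fluorescence ratio is summed target-cycle over summed buffer-cycle Cy3 intensity per cluster, averaged per switch-domain sequence, with clusters outside 100-1000 RFU excluded.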
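Further: ATP exposure 15 min at 22 °C before imaging.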

| Sequence | switch fluorescence ratio |
| --- | --- |
| TAATAAGAGG | 1.02 |
| TAATACAT | 0.969 |
| TAATAGAATC | 0.975 |
| TAATAGGGAG | 0.999 |
| TAATAGTGCG | 1 |
| TAATATAACA | 0.997 |
| TAATATATCT | 1.01 |
| TAATATCGGC | 0.994 |
| TAATATCTTC | 0.999 |
| TAATATTAA | 0.965 |
| TAATCAACAT | 0.987 |
| TAATCACGGA | 1.03 |
| TAATCCTGGG | 0.991 |
| TAATCGCGAT | 0.974 |
| TAATCGCTTT | 0.952 |
| TAATCGGACT | 0.961 |
| TAATCGGGAT | 0.973 |
| TAATCGTGAC | 1.04 |
| TAATCTGCAC | 1.09 |
| TAATCTGGAC | 1.19 |
| TAATGATTGG | 0.955 |
| TAATGCACTT | 1.05 |
| TAATGCAGCT | 0.972 |
| TAATGCTTCT | 0.99 |
| TAATGTCA | 0.963 |
| TAATGTCACT | 0.993 |

| Sequence | switch fluorescence ratio |
| --- | --- |
| TAATGTGG | 0.989 |
| TAATGTGGTG | 1.05 |
| TAATGTTAAC | 0.977 |
| TAATTAAC | 0.947 |
| TAATTACACC | 1.07 |
| TAATTACATC | 1.01 |
| TAATTATAAC | 0.981 |
| TAATTCGTCA | 0.987 |
| TAATTCTGGA | 1.02 |
| TAATTGCATG | 1.01 |
| TAATTGCGGC | 0.976 |
| TAATTGTCA | 0.977 |
| TAATTTAGCA | 1 |
| TAATTTAGTC | 1.05 |
| TAATTTCATC | 0.985 |
| TACAAACCGC | 1.16 |
| TACAAAGCGC | 1.03 |
| TACAAAGCT | 1.09 |
| TACAACAATT | 1.05 |
| TACAAGCTTG | 0.997 |
| TACAAGGATA | 1.03 |
| TACAAGGGAG | 0.949 |
| TACAAGTGG | 0.998 |
| TACAATAGGC | 1.05 |
| TACACAACT | 1.14 |
| TACACACTTA | 1.3 |

| Sequence | switch fluorescence ratio |
| --- | --- |
| TACACCGGAT | 1 |
| TACACCTAAG | 1.05 |
| TACACGACTA | 1.16 |
| TACACGATCA | 1.16 |
| TACACGGCTC | 1.03 |
| TACACTATTG | 1 |
| TACACTTTGA | 1 |
| TACAGAAGAT | 1.03 |
| TACAGAAT | 1 |
| TACAGAGACT | 1.03 |
| TACAGGATCA | 1.03 |
| TACAGTGTTC | 0.953 |
| TACATATCCC | 1.01 |
| TACATCCCTT | 1.05 |
| TACATCGCGC | 1.12 |
| TACATCTTTA | 1.01 |
| TACATGGATC | 0.963 |
| TACATTATTA | 1.01 |
| TACATTGTAT | 0.988 |
| TACATTGTG | 0.967 |
| TACATTTGAG | 0.999 |
| TACCAACAAT | 1.09 |
| TACCAATTGC | 1.07 |
| TACCAGACCG | 1.11 |
| TACCAGCCCC | 1.01 |
| TACCAGCGAT | 1.39 |

| Sequence | switch fluorescence ratio |
| --- | --- |
| TACCAGGGCG | 1.08 |
| TACCCAGGAC | 1.29 |
| TACCCGATGT | 0.992 |
| TACCCGCGGT | 1.12 |
| TACCCGCGTG | 1 |
| TACCCTAGTA | 0.994 |
| TACCCTTTAC | 1.22 |
| TACCGACTGA | 1.3 |
| TACCGATGTA | 1.08 |
| TACCGATTAC | 1.6 |
| TACCGCTACG | 1.21 |
| TACCGCTGGT | 1.05 |
| TACCGGTA | 0.958 |
| TACCGTA | 1.07 |
| TACCGTCGCG | 1.09 |
| TACCTACCGA | 1.56 |
| TACCTACGTT | 1.29 |
| TACCTATCT | 1.01 |
| TACCTGTATT | 0.963 |
| TACCTGTTGT | 0.986 |
| TACCTGTTTT | 1.01 |
| TACCTTAAAC | 1.08 |
| TACCTTGCGT | 1.01 |
